Laboratory results as given in PubChem BioAssay AID493208 (National Center for Advancing Translational Sciences (NCATS), 2011).
Hit rate of the full screen: of about 44,000 compounds, about 340 (0.77%) were called active. About 5% were inconclusive and are not listed. The call rests on the fitted dose curve; in most records, active means well fitted inhibition curve with a large enough effect; inconclusive means small, poorly fitted or top-dose-only effect; inactive means flat fitted curve, though single readings scatter. The list shows a part of the results.

Test: Acumen qHTS Assay for Inhibitors of the mTORC1 Signaling Pathway in MEF (Tsc2-/-, p53-/-) Cells: Sytravon;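 further: plate controls were DMSO for no effect and rapamycin for full effect; nearly all actives have a fitted effect of over 50% in size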
Settings: phospho-rpS6 immunofluorescence/PI, 24 h; series mostly up to 38.3 µM; activity change, negative = inhibition: at the top concentration
Outline: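 Immunofluorescence of rpS6 phosphorylation in Tsc2-/-, p53-/- MEFs after 24 h compound exposure, normalized to propidium iodide signal. Activity is expressed as % positive cells, thresholded with 7.5 nM rapamycin.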

Row | Compound | activity change, negative = inhibition
1 | COc1ccccc1CNS(=O)(=O)c1ccc2c(c1)NC(=O)C(C)C(=O)N2 (configuration not stated) | inactive: -4.51%
2 | Cc1cccc(-c2nc(C)c(CCNC(=O)C(=O)Nc3cccc(Cl)c3C)s2)c1 | inactive: 1.22%
3 | O=C(NCc1ccccc1)c1cc2sccc2n1Cc1ccc(Cl)cc1 | inactive: -9.69%
4 | COC(=O)c1ccccc1NC(=O)Cn1c(CCC(=O)O)ccc1-c1cccs1 | inactive: 1.21%
5 | Cc1ccc(-c2nc(-c3cc4c([nH]c3=O)CC(C)(C)CC4=O)sc2C)cc1 | inactive: 4.63%
6 | CCCCSc1nc(-c2ccc(OC)cc2)ccc1C#N | inactive: -15.9%
7 | CCOc1ccc(N(C)C(=O)CS(=O)(=O)c2cccc3nsnc23)cc1 | inactive: -0.0889%
8 | COC(=O)CSc1ncc2c(n1)-c1ccccc1N(Cc1ccccc1C)S2(=O)=O | inactive: 3.23%
9 | CCC(=O)N1CCc2cc(S(=O)(=O)CCC(=O)Nc3ccc(OC(F)(F)F)cc3)ccc21 | inactive: 1.24%
10 | COc1ccc(CC(=O)Nc2sc3c(c2C(=O)Nc2cccc(Cl)c2)CCCCC3)cc1 | inactive: -13%
11 | COc1ccc2nc3oc(C(=O)N4CCN(c5cc(C)ccc5C)CC4)cc3cc2c1 | inactive: -5.64%
12 | COc1ccccc1N1CCN(C(=O)C(CCSC)NS(=O)(=O)c2ccc3c(c2)oc(=O)n3C)CC1 (configuration not stated) | inactive: -5.64%
13 | CC(C)Oc1ccc(CNC(=O)CCCN2C(=O)CCn3nc(-c4cccn4C)cc32)cc1 | inactive: 0.759%
14 | O=C(c1ccco1)n1nc(-c2ccccc2)nc1NCc1ccc(Cl)cc1 | inactive: 3.91%
15 | Cc1nn(-c2ccccc2)c2c1N(CCCC(=O)NCc1ccc(N(C)C)cc1)C(=O)CS2 | inactive: -11%
16 | CCc1ccc(NCc2cc3ccc(OC)cc3n(CC(=O)Nc3ccc(F)cc3F)c2=O)cc1 | inactive: -3.17%
17 | CCC(=O)N1c2ccccc2CC1C(=O)N1CCN(c2cccc(Cl)c2)CC1 (configuration not stated) | inactive: 1.86%
18 | Cc1nn2c(=O)cc(COC(=O)c3ccco3)nc2s1 | inactive: -5%
19 | COc1cccc(CNCCSc2nnnn2C)c1OCc1ccccc1Cl | inactive: -0.128%
20 | COc1cccc(CNS(=O)(=O)c2ccc3c(c2)CCN3C(=O)C2CCC2)c1 | inactive: 0.163%
21 | O=C(Nc1ccc(F)cc1)N1CCN(c2ccccc2F)CC1 | inactive: -1.66%
22 | COc1ccc(N2C(=O)CS(=O)(=O)C23C(=O)N(Cc2cccc(F)c2)c2ccccc23)cc1OC (configuration not stated) | inactive: 4.55%
23 | O=C(CC(c1cccs1)N1Cc2ccccc2C1=O)Nc1ccc(F)c(F)c1 (configuration not stated) | inactive: -5.61%
24 | Cc1ccc(C)c(S(=O)(=O)c2nnn3c2nc(Nc2ccc(C)c(C)c2)c2sccc23)c1 | inactive: -1.38%
25 | Cc1cc(=O)[nH]c2nnc(SCc3ccc(F)cc3)n12 | inactive: 0.728%
26 | CCOC(=O)c1ccc(-n2c(CCC(=O)O)ccc2-c2ccc(Br)cc2)cc1 | inactive: -4.98%
27 | COc1ccc(Cn2c(SCC(=O)NCc3ccc(Cl)cc3)nc3ccsc3c2=O)cc1 | inactive: -6.2%
